Experimental data taken from paper PMC2920843 (2010).

Molecular target: T1, CDC25c phosphopeptide (Homo sapiens)
T1 chain: LLCS[pT]PNGL
Assay: ITC

B1: PLK1 […] (protein)
chain: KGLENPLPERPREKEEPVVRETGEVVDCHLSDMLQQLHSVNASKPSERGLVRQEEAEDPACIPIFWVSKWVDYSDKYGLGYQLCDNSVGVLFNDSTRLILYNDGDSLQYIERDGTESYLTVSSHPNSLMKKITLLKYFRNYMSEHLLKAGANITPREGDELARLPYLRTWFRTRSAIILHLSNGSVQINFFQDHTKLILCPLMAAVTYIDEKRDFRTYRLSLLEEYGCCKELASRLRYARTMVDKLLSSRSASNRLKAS
Kd: 705 nM

Square brackets hold non-standard residues; d marks the D form. Ends that are not written are not given here. pT = C[C@@H](OP(=O)(O)O)[C@H](N)C(=O)O
